In ChEMBL document CHEMBL1157539, “Thousands of chemical starting points for antimalarial lead identification” (Nature, 2010):
“And” between values parts separate entries of the source, which are not always exact repeats. Equal entries are not always repeated. In all, about 13,000 compounds were measured (“IFI”: median about 4, highest 2% from about 17 on). Some of the results follow.

Experiment: GSK_TCMDC: Inhibition Frequency Index (IFI). The number of non-kinase HTS assays where a compound showed > 50 % inhibition, expressed as a percentage of the number of such assays in which the compound was tested (-0 is zero)
Assay type: functional
Work on `COC(=O)c1ccc(CC(C)NCC(O)c2cccc(OCc3ccccc3)c2)cc1` (configuration not stated) yielded an IFI of 5.76%.
In the case of `O=C(/C=C/c1ccccc1Cl)NC1CCC(CN2CCC(c3c[nH]c4ccccc34)CC2)CC1` (configuration not stated), the IFI is reported as 5.04% and 6.94%.
`COc1cccc(O)c1CNCC(O)c1cccc(C(F)(F)F)c1` (configuration not stated) showed an IFI of 0.78%.
In the case of `Cc1ccc(/C=C/C(=O)NC2CCC(CN3CCC(c4c[nH]c5ccccc45)CC3)CC2)cc1C` (configuration not stated), the IFI is reported as 5.67% and 7.8%.
Work on `CCCCCSc1cc(O)c(C(CNC)C(C)C)cc1OC` (configuration not stated) yielded an IFI of 2.17%.
With `O=C(/C=C/c1ccc(Cl)c(Cl)c1)NCCC1CCC(N2CCC(c3c[nH]c4ccccc34)CC2)CC1` (configuration not stated) the IFI was 6.15%.
Compound `CC[C@H]1CN2CC[C@H]1C[C@H]2[C@H](O)c1cc(-c2ccc(Cl)c(Cl)c2)nc2ccc(OC)cc12` has an IFI of 13.8%.
With `O=C(/C=C/c1ccc(Cl)c(Cl)c1)NCCC1CCC(N2CCC(c3c[nH]c4ccc(O)cc34)CC2)CC1` (configuration not stated) the IFI was 5.59%.
`Cc1ccc(C(=O)Nc2ccnc(N(C)C3CCN(Cc4cccc(O)c4)CC3)c2)cn1` showed an IFI of 2.56%.
Work on `Cc1ccc2c(C3=CCN(CCCCC4(C)C(=O)Nc5c(F)cccc54)CC3)c(C)[nH]c2c1` (configuration not stated) yielded an IFI of 2.9%.
With `O=C(C=Cc1ccc(-c2ccccc2)cc1)NC1CCC(CN2CCC(c3c[nH]c4ccccc34)CC2)CC1` (configuration not stated) the IFI was 8.09% and 7.41%.
For `CC[C@H]1CN2CC[C@H]1C[C@H]2[C@H](O)c1cc(/C=C/c2ccccc2)nc2ccc(OC)cc12`, the IFI was 6.99%.
`C=CC12CCN(CC1)C(C(O)c1ccnc3ccc(OC)cc13)C2` (configuration not stated) gave an IFI of 0%.
For `N#Cc1ccc(N(CC(=O)NCCc2ccccc2)CC2CC2)c2ccccc12`, the IFI was 9.09%.
In the case of `CC[C@H]1CN2CC[C@@H]1C[C@H]2[C@H](O)c1ccnc2ccc(OC)cc12`, the IFI is reported as -0%.
Compound `Cc1ccccc1CNCC(O)c1cccc(C(F)(F)F)c1` (configuration not stated) has an IFI of 1.55%.
With `O=C1c2ccccc2CCC1CCN1CC=C(c2c[nH]c3ccccc23)CC1` (configuration not stated) the IFI was 2.92%.
For `Cc1[nH]c2cc(F)ccc2c1C1=CCN(CCCCC2(C)C(=O)Nc3c(F)cccc32)CC1` (configuration not stated), the IFI was 1.45%.
With `COc1cccc(CC(C)NCC(O)c2cccc(Cl)c2)c1` (configuration not stated) the IFI was 1.44%.
Work on `CC[C@H]1CN2CC[C@@H]1C[C@H]2[C@H](O)c1cc(-c2ccccc2)nc2ccc(O)cc12` yielded an IFI of 4.44%.
`O=C1COc2ccccc2N1CCN1CCC(NCc2ccc(-c3cccs3)cc2)CC1` gave an IFI of 10%.
`COc1cccc(CN2CCC(CCOC(c3ccccc3)c3ccc(Cl)cc3)CC2)c1O` (configuration not stated) gave an IFI of 5.47%.
For `COC(=O)/C=C/c1ccc(CC(C)NCC(O)c2cccc(Br)c2)cc1` (configuration not stated), the IFI was 7.19%.
For `O=C(Cc1cc(=O)oc2cc(O)ccc12)NC1CCC(CN2CCC(c3c[nH]c4ccccc34)CC2)CC1` (configuration not stated), the IFI was 2.99%.
`CN(c1cc(NC(=O)c2ccc(F)cc2)ccn1)C1CCN(Cc2cccc(C#N)c2)CC1` showed an IFI of 4.88%.
`N=C(N)NC(=O)Nc1ccc([N+](=O)[O-])c(Cl)c1` showed an IFI of -0%.
Work on `CN1CC=C(C=Cc2c[nH]c3ccccc23)CC1` yielded an IFI of 2.04%.
In the case of `COC(=O)CN(C(=O)/C=C/c1ccc(Cl)c(Cl)c1)C1CCC(CN2CCC(c3c[nH]c4ccccc34)CC2)CC1` (configuration not stated), the IFI is reported as 4.51%.
`CCCc1c(C(=O)NC2CCC(CN3CCC(c4c[nH]c5ccccc45)CC3)CC2)cnn1-c1ccc(Cl)cc1` (configuration not stated) showed an IFI of 7.41%.
In the case of `CCCCCc1cc(O)c2c(c1)OC(C)(C)CC2C1=CCN(Cc2ccccc2)CC1` (configuration not stated), the IFI is reported as 2.86%.
For `CC[C@H]1CN2CC[C@@H]1C[C@@H]2[C@@H](O)c1cc(-c2ccc(F)cc2)nc2ccc(OC)cc12`, the IFI was 4.48%.
Compound `CC[C@H]1C[N+]2([O-])CC[C@@H]1C[C@H]2[C@H](O)c1cc(-c2ccccc2)nc2ccc(OC)cc12` has an IFI of 2.21%.
In the case of `Cc1[nH]c2ccccc2c1C1=CCN(CCCCC23CCCc4cccc(c42)NC3=O)CC1` (configuration not stated), the IFI is reported as 3.55%.
Work on `O=C(/C=C/c1ccc(Cl)c(Cl)c1)N1CCC(CN2CCC(c3c[nH]c4ccc(O)cc34)CC2)CC1` yielded an IFI of 12%.
For `COCCNCc1cccc(-c2cccc(CN(C(=O)Nc3ccccc3)C3CCN(Cc4ccccc4)CC3)c2)c1`, the IFI was 7.75%.
Work on `COc1nc(N)ncc1C(=O)NC1CN2CCC1CC2` (configuration not stated) yielded an IFI of -0%.
`COc1ccc(C=CC(=O)N2CCC(CN3CCC(c4c[nH]c5ccccc45)CC3)CC2)cc1OC` showed an IFI of 5.07%.
Compound `CC(=O)C1(c2ccccc2)CCN(CCC(NC(=O)c2cc(C(F)(F)F)cc(C(F)(F)F)c2)c2ccc(Cl)c(Cl)c2)CC1` (configuration not stated) has an IFI of 1.45%.
`CN(CC(=O)N1CCN(S(=O)(=O)c2cccc(Cl)c2)CC1CN1CCCC1)c1ccc(Cl)c(Cl)c1` (configuration not stated) showed an IFI of 6.67%.
Work on `CCCCCC(C)C(C)c1cc(O)c2c(c1)OC(C)(C)c1cnccc1-2` (configuration not stated) yielded an IFI of 1.49%.
`Cc1[nH]c2c(C)cc(NS(C)(=O)=O)cc2c1C1CCN(CC2CCN(C(=O)/C=C/c3ccc(Cl)c(Cl)c3)CC2)CC1` showed an IFI of 2.29%.
`Cc1[nH]c2ccccc2c1C1CCN(CC2CCC(NC(=O)/C=C/c3ccc(Cl)c(Cl)c3)CC2)CC1` (configuration not stated) showed an IFI of 2.21%.
For `FC(F)(F)c1ccc(NC(=S)NC2CCC(CN3CCC(c4c[nH]c5ccccc45)CC3)CC2)cc1` (configuration not stated), the IFI was 9.49% and 10.7%.
`CC[C@H]1CN2CC[C@@H]1C[C@H]2[C@H](O)c1cc(N2CCC(N3CCCCC3)CC2)nc2ccc(OC)cc12` showed an IFI of 2.9%.
With `C/C=C1\CN2CC[C@H]1C[C@H]2[C@H](O)c1ccnc2ccc(OC)cc12` the IFI was -0% and 0.74%.
In the case of `O=C(NC1CCN(CC2(c3ccc(Cl)cc3)CCC2)CC1)c1cscn1`, the IFI is reported as 4.17%.
For `CC[C@H]1CN2CC[C@H]1C[C@H]2[C@H](O)c1ccnc2ccc(C#N)cc12`, the IFI was -0%.
`CCC(C)CN1CCC(N(C)c2cc(NC(=O)c3cccc(C)c3)ccn2)CC1` (configuration not stated) gave an IFI of -0%.
Work on `C[C@@H]1C[C@@H]([C@H](O)CC2CC(=O)NC(=O)C2)C(=O)[C@@H](C)C1` yielded an IFI of 9.35%.
For `O=C(NC1CCC(CN2CCC(c3c[nH]c4ccccc34)CC2)CC1)c1cc2ccccc2s1` (configuration not stated), the IFI was 7.04% and 4.9%.
Compound `CC(Cc1ccc(OCc2ccccc2)cc1)NCC(O)c1cccc(Cl)c1` (configuration not stated) has an IFI of 15.6%.
In the case of `O=C(/C=C/c1ccc(Cl)c(Cl)c1)NC1CCC(CN2CCC(c3c[nH]c4ccc(O)cc34)CC2)CC1` (configuration not stated), the IFI is reported as 9.38% and 10.8%.
Compound `CNCCCCCCOc1ccc(CC(C)NCC(O)c2cccc(C(F)(F)F)c2)cc1` (configuration not stated) has an IFI of 7.8%.
Work on `O=C(/C=C/C=C/c1ccccc1)NC1CCC(CN2CCC(c3c[nH]c4ccccc34)CC2)CC1` (configuration not stated) yielded an IFI of 6.85%.
Compound `CCOC(C(=O)OCCN(C(C)C)C(C)C)(c1ccccc1)c1ccccc1` has an IFI of 1.37%.
In the case of `CC(Cc1ccc(OC2CCCCC2)cc1)NCC(O)c1cccc(Cl)c1` (configuration not stated), the IFI is reported as 21.7%.
Work on `COc1cccc(CCNC(C)Cc2ccc(OCCCCOc3ccccc3)cc2)c1` (configuration not stated) yielded an IFI of 31%.
In the case of `CC(Cc1ccc(NC(=O)[C@@H](C)NCCc2cccc(Cl)c2)cc1)NCCc1cccc(Cl)c1` (some centres not stated), the IFI is reported as 12.4%.
With `CN(c1cc(NC(=O)c2ccc(F)cc2)ccn1)C1CCN(Cc2cccc(F)c2)CC1` the IFI was -0%.
`O=C(CSc1ccc(Cl)cc1)NC1CCC(CN2CCC(c3c[nH]c4ccccc34)CC2)CC1` (configuration not stated) showed an IFI of 7.91%.
`CC(=O)C1(c2ccccc2)CCN(CCC2(c3ccc(Cl)c(Cl)c3)CN(C(=O)Nc3cc(F)cc(F)c3)CCO2)CC1` (configuration not stated) showed an IFI of 7.59%.
For `CC[C@H]1CN2CC[C@@H]1C[C@H]2[C@H](O)c1cc(-c2cc(Cl)cc(Cl)c2)nc2ccc(OC)cc12`, the IFI was 0.69%.
Compound `O=C(/C=C/c1ccc(Cl)c(Cl)c1)NC1CCC(CN2CCC(c3c[nH]c4cc(O)ccc34)CC2)CC1` (configuration not stated) has an IFI of 6.72%.
In the case of `Oc1cccc(C2CCCN(Cc3cccc4cc[nH]c34)C2)c1` (configuration not stated), the IFI is reported as 11.8%.
Compound `O=C1Nc2cccc3c2C1(CCCCN1CC=C(c2c[nH]c4ncccc24)CC1)CCC3` (configuration not stated) has an IFI of 4.41%.
For `CC[C@H]1CN2CC[C@H]1C[C@H]2[C@H](O)c1cc(-c2ccc3ccccc3c2)nc2ccc(OC)cc12`, the IFI was 10.5%.
Work on `Cc1[nH]c2ccccc2c1C1=CCN(CCN2CCCc3c(Br)cccc3C2=O)CC1` yielded an IFI of 2.96%.
`CNCCN(C)C(=O)Oc1c(Cl)c(C)nc(C)c1-c1ccc(Oc2ccc(OC(F)(F)F)cc2)cc1` gave an IFI of 2.34%.
Compound `COc1c(F)cc(CC(C)NCC(O)c2cccc(Cl)c2)cc1F` (configuration not stated) has an IFI of 1.37%.
For `CN1CC=C(c2c[nH]c3ccc(OCc4ccccc4)cc23)CC1`, the IFI was 1.64%.
Work on `C/C=C1/CN2CC[C@H]1C[C@H]2[C@H](O)c1ccnc2ccc(OC)cc12` yielded an IFI of -0%.
Compound `CN(C(=O)OCc1ccccc1)C1CCC(CCN2CCC3(CC2)C(=O)NCN3c2cccc(C(F)(F)F)c2)(c2ccccc2)CC1` (configuration not stated) has an IFI of 8.63%.
Work on `C=C[C@H]1CN2CC[C@H]1C[C@H]2[C@H](O)c1cc(-c2ccc(Cl)cc2)nc2ccc(OC)cc12` yielded an IFI of 14.9%.
With `CC(=O)Nc1ccc(CN2CCC(N(C)c3cc(NC(=O)c4cccs4)ccn3)CC2)cc1` the IFI was 2.94%.
Work on `Oc1ccccc1CN1CCC(CCOC(c2ccccc2)c2ccc(Cl)cc2)CC1` (configuration not stated) yielded an IFI of 2.34%.
`Fc1ccc2[nH]cc(CCN3CCC(CNCc4ccccc4)CC3)c2c1` showed an IFI of 9.86%.
Work on `CC[C@H]1CN2CC[C@H]1C[C@H]2[C@H](O)c1cc(N2CCCC(CO)C2)nc2ccc(OC)cc12` (some centres not stated) yielded an IFI of -0%.
Compound `CC(=O)N(Cc1ccccc1-c1ccc(CNCCc2ccccc2)cc1)C1CCN(Cc2ccccc2)CC1` has an IFI of 6.02%.
`O=C(Nc1ccc(CN2CCC(c3c[nH]c4ccc(O)cc34)CC2)cc1)c1ccc(-c2ccccc2)cc1` gave an IFI of 7.69%.
In the case of `CN1CC=C(c2c[nH]c3ccc(Br)cc23)CC1`, the IFI is reported as -0%.
Compound `CCN(Cc1ccccc1)CC(O)c1ccc(Cl)c(Cl)c1` (configuration not stated) has an IFI of 0.74%.
In the case of `O=C(/C=C/c1ccc(Cl)c(Cl)c1)N1CCC(CN2CCC(c3cn(CC(=O)N4CCCCC4)c4ccccc34)CC2)CC1`, the IFI is reported as 10%.
With `CC[C@H]1CN2CC[C@H]1C[C@H]2[C@H](O)c1cc(-c2ccc(SC)cc2)nc2ccc(OC)cc12` the IFI was 6.9%.
`NC1=NC2(CCCC2)N(c2ccc(Cl)cc2)C(N)=N1` gave an IFI of 0.67%.
In the case of `CC(Cc1ccc(-c2nc3ccccc3[nH]2)cc1)NCC(O)c1cccc(C(F)(F)F)c1` (configuration not stated), the IFI is reported as 7.19%.
In the case of `Cc1ccc(/C=C/C(=O)NC2CCC(CN3CCC(c4c[nH]c5ccccc45)CC3)CC2)cc1` (configuration not stated), the IFI is reported as 7.04% and 5.52%.
`S=C(NCC1CCCCC1)NC1CCC(CN2CCC(c3c[nH]c4ccccc34)CC2)CC1` (configuration not stated) showed an IFI of 5.07%.
